Test results from the supplement of paper PMC4967469.
IC50 is the fitted dose that halves viability relative to control wells, and lower means more sensitive; fits outside the tested doses are given as limits. AUC is the area under the same curve over the 256-fold range up to the top dose, as a fraction; values near 1 show little effect. The top dose, if marked as inferred, comes from the curve model; the source does not state it.

Key:
Experiment in all cases: Viability of human cancer cell lines after 72 h of drug (GDSC screen)
PFI-1 = compound: COc1ccccc1S(=O)(=O)Nc1ccc2c(c1)CN(C)C(=O)N2 [PFI-1]; conditions: top dose 10 µM; top dose inferred
Method: (§1)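 Human cancer cell lines in 384-well plates, medium with 10% serum, drug for 72 h over a 256-fold dose range (nine 2-fold or five 4-fold steps up to the top dose). Adherent lines were fixed and stained with the nucleic acid dye Syto60, suspension lines read with resazurin; signal relative to control wells, capped at 0 and 100%. One two-parameter sigmoid per drug and line, fitted in a mixed model over all curves with the slope shared within a line.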

NG-25 = compound: CCN1CCN(Cc2ccc(NC(=O)c3ccc(C)c(Oc4ccnc5[nH]ccc45)c3)cc2C(F)(F)F)CC1 [NG-25]; conditions: top dose 10.24 µM; top dose inferred
Method: as §1

GSK-1904529A = compound: CCc1cc(Nc2nccc(-c3c(-c4ccc(OC)c(C(=O)Nc5c(F)cccc5F)c4)nc4ccccn34)n2)c(OC)cc1N1CCC(N2CCN(S(C)(=O)=O)CC2)CC1 [GSK-1904529A]; conditions: top dose 1.024 µM; top dose inferred
Method: as §1

Tipifarnib = compound: Cn1cncc1[C@@](N)(c1ccc(Cl)cc1)c1ccc2c(c1)c(-c1cccc(Cl)c1)cc(=O)n2C [Tipifarnib]; conditions: top dose 16 µM; top dose inferred
Method: as §1

Cell Line | AUC (PFI-1) | IC50 (PFI-1) | AUC (NG-25) | IC50 (NG-25) | AUC (GSK-1904529A) | IC50 (GSK-1904529A) | AUC (Tipifarnib) | IC50 (Tipifarnib)
H3118 (head and neck, adherent) | 0.794 | 5.07 µM | 0.88 | > 10.2 µM | 0.969 | > 1.02 µM | 0.528 | 1.2 µM
H3255 (lung adenocarcinoma, adherent) | 0.914 | > 10 µM | 0.977 | > 10.2 µM | 0.979 | > 1.02 µM | 0.718 | 4.73 µM
HARA (lung squamous cell carcinoma, adherent) | 0.821 | 7.06 µM | 0.881 | > 10.2 µM | 0.972 | > 1.02 µM | 0.8 | 9.26 µM
HCC38 (breast, adherent) | 0.908 | > 10 µM | 0.857 | 9.41 µM | 0.977 | > 1.02 µM | 0.76 | –
HCC70 (breast, adherent) | 0.969 | > 10 µM | 0.812 | 5.38 µM | 0.987 | > 1.02 µM | 0.514 | 1.09 µM
HCC202 (breast, adherent) | 0.957 | > 10 µM | 0.802 | 7.63 µM | 0.952 | > 1.02 µM | 0.607 | 2.21 µM
HCC1143 (breast, adherent) | 0.914 | > 10 µM | 0.836 | > 10.2 µM | 0.962 | > 1.02 µM | 0.777 | 9.26 µM
HCC1395 (breast, adherent) | 0.937 | > 10 µM | 0.83 | 8.26 µM | 0.931 | > 1.02 µM | 0.774 | 7.57 µM
HCC1419 (breast, adherent) | 0.92 | > 10 µM | 0.958 | > 10.2 µM | 0.982 | > 1.02 µM | 0.717 | 5.44 µM
HCC1428 (breast, adherent) | 0.865 | > 10 µM | 0.985 | > 10.2 µM | 0.963 | > 1.02 µM | 0.865 | > 16 µM
HCC1500 (breast, adherent) | 0.89 | > 10 µM | 0.944 | > 10.2 µM | 0.987 | > 1.02 µM | 0.757 | 5.72 µM
HCC1569 (breast, adherent) | 0.852 | > 10 µM | 0.946 | > 10.2 µM | 0.951 | > 1.02 µM | 0.619 | 2.37 µM
HCC1806 (breast, adherent) | 0.904 | > 10 µM | 0.941 | > 10.2 µM | 0.965 | > 1.02 µM | 0.839 | 9.64 µM
HCC1937 (breast, adherent) | 0.928 | > 10 µM | 0.965 | > 10.2 µM | 0.982 | > 1.02 µM | 0.743 | 5.6 µM
HCC1954 (breast, adherent) | 0.981 | > 10 µM | 0.984 | > 10.2 µM | 0.982 | > 1.02 µM | 0.737 | 5.4 µM
HCC2998 (large intestine, adherent) | 0.832 | 6.12 µM | 0.947 | > 10.2 µM | 0.987 | > 1.02 µM | 0.393 | 0.512 µM

Cell Line | AUC (PFI-1) | IC50 (PFI-1) | AUC (NG-25) | IC50 (NG-25) | AUC (GSK-1904529A) | IC50 (GSK-1904529A) | AUC (Tipifarnib) | IC50 (Tipifarnib)
HCC-15 (lung squamous cell carcinoma, adherent) | 0.838 | 9.66 µM | 0.932 | > 10.2 µM | 0.972 | > 1.02 µM | 0.685 | 3.84 µM
HCC-44 (lung adenocarcinoma, adherent) | 0.761 | 3.48 µM | 0.836 | 6.58 µM | 0.961 | > 1.02 µM | 0.493 | 0.957 µM
HCC-56 (large intestine, adherent) | 0.86 | 8.7 µM | 0.891 | > 10.2 µM | 0.986 | > 1.02 µM | 0.828 | 10.2 µM
HCC-78 (lung adenocarcinoma, adherent) | 0.816 | 6.77 µM | 0.875 | > 10.2 µM | 0.983 | > 1.02 µM | 0.956 | > 16 µM
HCC-827 (lung adenocarcinoma, adherent) | 0.973 | > 10 µM | 0.968 | > 10.2 µM | 0.94 | > 1.02 µM | 0.808 | 9.85 µM
HCT-15 (large intestine, adherent) | 0.985 | > 10 µM | 0.853 | 8.75 µM | 0.983 | > 1.02 µM | 0.315 | 0.294 µM
HCT-116 (large intestine, adherent) | 0.869 | 8.42 µM | 0.814 | 5.21 µM | 0.986 | > 1.02 µM | 0.744 | 4.79 µM
HDQ-P1 (breast, adherent) | 0.959 | > 10 µM | 0.982 | > 10.2 µM | 0.983 | > 1.02 µM | 0.77 | 7.29 µM
HEC-1 (endometrium, adherent) | 0.908 | > 10 µM | 0.987 | > 10.2 µM | 0.98 | > 1.02 µM | 0.816 | 8.45 µM
HGC-27 (stomach, adherent) | 0.758 | 2.99 µM | 0.869 | 7.14 µM | 0.927 | > 1.02 µM | 0.55 | 1.34 µM
HLE (liver, adherent) | 0.904 | > 10 µM | 0.859 | 7.75 µM | 0.922 | > 1.02 µM | 0.308 | 0.299 µM
HMV-II (melanoma, adherent) | 0.853 | > 10 µM | 0.777 | 5.09 µM | 0.968 | > 1.02 µM | 0.31 | 0.258 µM
HN (head and neck, adherent) | 0.756 | 3.22 µM | 0.989 | > 10.2 µM | 0.974 | > 1.02 µM | 0.949 | > 16 µM
HO-1-N-1 (head and neck, adherent) | 0.824 | 5.33 µM | 0.973 | > 10.2 µM | 0.98 | > 1.02 µM | 0.783 | 6.15 µM
HO-1-u-1 (head and neck, adherent) | 0.899 | > 10 µM | 0.934 | > 10.2 µM | 0.981 | > 1.02 µM | 0.807 | 7.81 µM
